± gives the standard deviation of the averaged measurements. The list shows a part of the results.

This assay relates to PfAP2-G AP2 domain (GST-tagged). The assay can be described thus: gcPBM binding intensity (ln(normalized median fluorescence intensity)); higher = stronger DNA binding. In a few lines:
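GST-tagged P. falciparum DNA-binding domains, expressed in E. coli (about 25 μg on average), were applied for 1 h to an Agilent 4 × 180k array of primer-extended double-stranded 36-bp intergenic genomic probes plus negative controls. The binding buffer was 1× PBS with 1% milk, 0.2 mg/ml BSA, 0.5% salmon testes DNA and 0.03% Triton X-100. Bound protein was detected with Alexa488 anti-GST antibody and scanned at 488 nm. Binding intensity is the highest Masliner-normalised natural-log median intensity across replicate spots of either probe orientation.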
On to “AAACATTTATGAAGGTGTACAAAAATGAATTAAAAA [XGTACX_site7035]”, for which the “gcPBM binding intensity (ln)” value was 11.3 ± 0.8.
As to “TTTTAGCTATTTTAATATAATGAAGCAAAAAATAAA [TGCATGCA_negctrl_site576]”, the “gcPBM binding intensity (ln)” value was 9.735 ± 0.078.
To “ATAATAAATTCTACGCGTACAAAACCATGAACATTA [XGTACX_site7505]” belongs 11.7 ± 1.1; to “TTTATTAATAAAAAGGTGCAATCAGGAAAAATTATC [GTGCAC_site9626]”, 10.4 ± 0.31.
To “ATCCTTTATAAATAAGTGCATATAAAAAATAATATT [GTGCAC_site9759]” belongs 10.1 ± 0.3.
To “ACACATATGTATATATGTACTTATATATATATATAT [XGTACX_site8632]” belongs 11.3 ± 0.8; to AATTATATATAAAAAGTGCAAAACGATAATTCATCA, 10.12 ± 0.035; to “TCATATTCCAAAAAAAAAAAAAAAAAAAAAAAAATA [CACACA_negctrl_site1293]”, 9.66 ± 0.3.
Turning to “AATATATATATATTATGTACACATAGAAATATATTA [XGTACX_site3874]”, the “gcPBM binding intensity (ln)” value was 11.3 ± 0.76.
For the sequence “ATGTATTACTTAAATATATGAAACATATTACTTTTA [CACACA_negctrl_site496]”, the “gcPBM binding intensity (ln)” value was 9.63 ± 0.16.
The figure for “AAAAAAAAAATTTTCGTGCACATAAGAAAATTTAAA [GTGCAC_site9788]” is 10.3 ± 0.33; for “ATAGTATATCAAAATTTGTAAATCATTCTCAATAAA [CACACA_negctrl_site430]” it is 9.74 ± 0.099.
The figure for ACATTGTTGGTGTTAGTGCATTGGTAAATATTATAT is 10.3 ± 0.18; for “AAAAAAAAAAAAAAAACACACATATCTGTATTTATA [CACACA_site5760]” it is 10.3 ± 0.16; for “CATACATACAAACACACACACATATAAATACATACA [CACACA_site4625]” it is 9.89 ± 0.014.
Take “CACACGTAAAAGTATAATATAAAAAAGGTATACACT [CACACA_negctrl_site127]”: the “gcPBM binding intensity (ln)” value turned out to be 10.21 ± 0.049.
To “TATTTAAAGATATATACACACATTTGATATTATTAT [CACACA_site6509]” belongs 9.875 ± 0.035.
Consider “ATAATATATGAAAAAACGATTTTTTCATTTTAAATA [XGTACX_negctrl_site146]”, for which the “gcPBM binding intensity (ln)” value stood at 9.91 ± 0.16.
Turning to “TTTATAAACAAATGAACACACAAACATATTTATATA [CACACA_site7478]”, the “gcPBM binding intensity (ln)” value is 9.98 ± 0.085.
The figure for “ACCTACATACATATGTGTACTTATTTGTATTCACTG [XGTACX_site7124]” is 11.5 ± 0.66; for “TTTACATATTTATATACACACTTTTGCGTGTCTGGT [CACACA_site4750]” it is 10.03 ± 0.021.
The figure for “TCCATATATATTATGTGTACATATTATATATATAAA [XGTACX_site7525]” is 11.5 ± 0.9; for “TTTAAATATTTTAACACACTCATATTTAGGTTACAA [CACACA_site5685]” it is 10.02 ± 0.078; for “TAATCCATAAGAAGCACACACATATAAATATATTTT [CACACA_site6774]” it is 9.88 ± 0.028.
To “AAACTTGACGGACACACACACACATATATAAAAAAA [CACACA_site4577]” belongs 11.3 ± 0.84; to ATATATAAATAAATAGTGCATTTTAATATTTAACGT, 9.925 ± 0.049.
As for “ATATATAAAATATATTGTACATTAACATATATATTT [XGTACX_site2055]”, the “gcPBM binding intensity (ln)” value was determined as 10.7 ± 0.43.
The figure for “GTAATATTATATAGTTGTACTTTTTTTTTATTATAT [XGTACX_site483]” is 11.5 ± 1.
In the case of “CAATATAAAAAACACACGCACACAAAAAAAAAAAAA [CACACA_site3521]”, the “gcPBM binding intensity (ln)” value was 10.2 ± 0.49.
To “AGTAAAAGAAAGCACACACACATGTATATATGTATG [CACACA_site3858]” belongs 9.96 ± 0.11; to “AATATCATCAAACGCACACATACATAAATATATTAT [CACACA_site2174]”, 10.04 ± 0.092.
With “GTTCTTTCAAGTTATACACACCAAAAAAAAAAAAAA [CACACA_site7435]”, the “gcPBM binding intensity (ln)” value was found to be 10.1 ± 0.35.
To “TTTCTTTATTTTTTTTTTTTTTTTTTTCCTTTTTTT [TGCATGCA_negctrl_site231]” belongs 9.71 ± 0.51; to “TGTTATATTTGTGCGTGTACACATTTGAAAAAATAT [XGTACX_site3796]”, 11.8 ± 1.1.
On to “AACGGGGCCAAGAAATATAAATAATCAAAACAAAAA [XGTACX_negctrl_site320]”, for which the “gcPBM binding intensity (ln)” value came to 10.5 ± 0.7.
The figure for “TGTGCACGCATATACACACACAAATACAATGATAAA [CACACA_site6656]” is 10.4 ± 0.43; for “ATAATACAAAATACATGTACAAATATTTTTCATATT [XGTACX_site1721]” it is 10.9 ± 0.52.
The figure for “AGTGTGTGTGCGTATAGTACATATACATATATACAC [XGTACX_site6882]” is 11.2 ± 0.67.
The figure for “AAATGAATAAAATTTATTTATAAAAGAAAAATCACA [GTGCAC_negctrl_site225]” is 9.61 ± 0.23.
For “AATTCTTTCATATATTGTACGTATTCCCATAAAATA [XGTACX_site5923]”, the “gcPBM binding intensity (ln)” value is 11.6 ± 0.89.
Take “TAGTACACACAAAATACATGCGGGGTTTAATATTTA [TGCATGCA_site576]”: the “gcPBM binding intensity (ln)” value turned out to be 10.7 ± 0.33.
For the sequence “TTGTCATTTATAAAATGTACGTGTGTATATATTTAA [XGTACX_site5000]”, the “gcPBM binding intensity (ln)” value was 11.2 ± 0.67.
To “TTGCCATTAATTTATACACACACATTTTAATTTTTT [CACACA_site8150]” belongs 10.07 ± 0.099; to “CAAATATATATGTTCACACATATAATTATTGTGAAA [CACACA_site4190]”, 9.835 ± 0.021.
Take “TCAATAGTTACTAGTACATGCAAAAATAAACCTATA [TGCATGCA_site85]”: the “gcPBM binding intensity (ln)” value stood at 11.2 ± 0.88.
To “AAGAAAATAAAATAAAAAAAAAAATAAAAAAAATAA [TGCATGCA_negctrl_site516]” belongs 9.17 ± 0.099; to “GTATGTTTAATTTTAGTGCAATTATAAATATTTTAA [GTGCAC_site9531]”, 10.1 ± 0.21.
To “TTTTAAAGCATATCATATAAAGAACATGACATAGGA [CACACA_negctrl_site630]” belongs 9.95 ± 0.28.
As for “AACATTTTTAAATATATAAAAATATATATATATATA [XGTACX_negctrl_site551]”, the “gcPBM binding intensity (ln)” value worked out at 9.74 ± 0.25.
To “TTATATTTATGATACACACACGTATATTCACATACA [CACACA_site6354]” belongs 10.3 ± 0.16.
To “ATTTTTTTTTTTTCCTTACACACATATTTCATTTTA [CACACA_site748]” belongs 10.1 ± 0.2; to “TCTTTATATATATATATATGTGTGAATGTTAAGTAT [XGTACX_negctrl_site135]”, 10.1 ± 0.21.
To “AAATTGTCTGCATATAGTACATAAATATATTAATAT [XGTACX_site4557]” belongs 10.9 ± 0.57; to ATATATATATATATAGTGCATAATGTTTTAATAGAT, 10.1 ± 0.27; to “TATAATATATTTATATGTACTTATTTATTTATATAT [XGTACX_site6519]”, 11.4 ± 0.95.
Turning to “GAGTTTATTCTTTTTATACACACCTTATTTGATTAA [CACACA_site735]”, the “gcPBM binding intensity (ln)” value was 10.03 ± 0.057.
The figure for “TATTATTTTATGAGACATAAAAAAAAAAAAAAAAAA [CACACA_negctrl_site1534]” is 9.81 ± 0.48.
